Source: PubChem BioAssay AID463173 (ICCB-Longwood Screening Facility, Harvard Medical School, 2010)
The campaign covered roughly 52,000 compounds. About 1,700 (3.3%) were called active. Rule as the data show it: active = survival mostly below about 52% (no sharp cut-off); inactive = mostly above about 56%. The list shows a part of the results.

What follows are compounds tested on Wild type (assay: S. aureus survival, RN4220 and DeltatarO strains – OD600, teichoic acid synthesis inhibitors, primary screen (AID 463173)). Conditions: S. aureus RN4220 wild type/DeltatarO growth, OD600, 18 h, hits give low values, screened at 18.75 µg/mL (by protocol).

Row | Structure (SMILES) | survival
1 | CCOc1ccc(CNC(=O)Cn2nc(N3CCN(c4ccccc4)CC3)ccc2=O)cc1 | inactive: 81%
2 | Oc1c(C(c2cccc(Br)c2)N2CCCC2)sc2nc(-c3ccco3)nn12 (centres undefined) | inactive: 77%
3 | O=C(CCCCCn1c(=O)[nH]c2ccsc2c1=O)NCc1ccccc1 | inactive: 86%
4 | CCn1c(SCc2ccccc2)nnc1C1CCCCC1 | inactive: 106%
5 | Cc1cccc(N2C(=O)C(CC(=O)Nc3ccccc3)N(C3CCCCC3)C2=O)c1 (centres undefined) | inactive: 82%
6 | COc1ccccc1NC(=O)C1=C(C)NC2=C(C(=O)CCC2)C1c1cc2c(cc1Br)OCO2 (centres undefined) | inactive: 103%
7 | COc1cccc(C(=O)Nc2nc3nc(C)c(Cc4ccccc4)c(=O)n3[nH]2)c1 | inactive: 105%
8 | CCOC(=O)c1c(C)[nH]c(C)c1S(=O)(=O)N(C)CC(=O)N1CCN(c2cccc(C)c2C)CC1 | inactive: 72%
9 | COC(=O)c1ccc(NC(=O)CC2C(=O)N(c3cccc(C)c3)C(=O)N2Cc2ccco2)cc1 (centres undefined) | inactive: 81%
10 | CCOC(=O)c1c(C)oc2nc(C)nc(NCCCN3CCN(c4ccccc4OC)CC3)c12 | inactive: 81%
11 | Cc1nn(C)c2c1c(-c1ccccc1)cc(=O)n2Cc1ccc(Br)cc1F | inactive: 78%
12 | COc1ccccc1C(=O)Nc1ccccc1C(=O)OCc1cc(=O)n2c(C)csc2n1 | inactive: 131%
13 | O=C(c1cc2ccccc2oc1=O)N1CCCC1 | inactive: 99%
14 | Cc1ccc(OCC(=O)N(Cc2ccc(N(C)C)cc2)CC2CCCO2)cc1C (centres undefined) | inactive: 82%
15 | CCCCOc1ccc(NC(=O)c2cc3c(n(-c4ccc(Cl)cc4)c2=O)CCCC3=O)cc1 | inactive: 148%
16 | Cc1ccc(CNC(=O)CCCn2c(=O)c3ccccc3n(Cc3ccccc3Cl)c2=O)cc1 | inactive: 126%
17 | O=C(c1cccc([N+](=O)[O-])c1)N1c2nc(-c3ccco3)nn2C2(CCCCC2)[C@@H]2CCCC[C@@H]21 | inactive: 62%
18 | COc1ccc(-c2cc(C(F)(F)F)nc(SCC(=O)N3CCCCC3)n2)cc1 | inactive: 97%
19 | O=C(Cn1c(=O)n(CCCS(=O)(=O)C2CCCCC2)c(=O)c2ccccc21)Nc1ccccc1F | inactive: 70%
20 | Cc1cc(C(=O)Nc2cccc(C(F)(F)F)c2)c2c(C)nn(-c3cccc(F)c3)c2n1 | active: -1%
21 | Cc1nn2c3c(cnc2c1-c1ccc(F)cc1)C(=O)CC(c1ccccc1)C3 (centres undefined) | inactive: 71%
22 | COc1cccc(CNC(=O)C2CCCN(S(=O)(=O)c3ccc4c(ccn4C)c3)C2)c1OC (centres undefined) | inactive: 78%
23 | Cc1cc(C)c(-c2csc(-c3cc4ccccc4oc3=O)n2)cc1C | inactive: 55%

Row | Structure (SMILES) | survival
24 | CCCN1CCN(CCNC(=O)Nc2cc(Cl)c(OC)cc2OC)CC1 | inactive: 94%
25 | CC(=O)Nc1ccc(NC(=O)CC(C)n2ccc(C)n2)cc1 (centres undefined) | inactive: 64%
26 | O=S(=O)(NCCc1csc2nc(-c3ccc(F)cc3)nn12)c1ccc2c(c1)OCCO2 | inactive: 131%
27 | COc1ccc(NC(=O)CCn2nc(-c3ccc(Cl)cc3)c3ccccc3c2=O)cc1 | inactive: 82%
28 | O=C(Nc1nnc(N2CCCC2)s1)Nc1cc(F)ccc1F | inactive: 82%
29 | Cc1oc(-c2cccc(Cl)c2)nc1CN1CCC(C(=O)NCc2ccc(F)cc2)CC1 | inactive: 92%
30 | O=C(NCCc1ccccc1)c1c2c(nc3ccccc13)C(=O)N(C1CCCCC1)C2 | inactive: 83%
31 | CCCCNC(=O)c1c[nH]c2c(F)cccc2c1=O | inactive: 103%
32 | O=C1c2ccc(Oc3ccc4c(c3)C(=O)N(c3ncccn3)C4=O)cc2C(=O)N1c1ncccn1 | inactive: 118%
33 | Cc1cc2ccccc2nc1SCC(N)=O | inactive: 115%
34 | CCCN1C(=O)c2[nH]nc(-c3ccc(F)cc3)c2C1c1ccc(O)c(OCC)c1 (centres undefined) | inactive: 73%
35 | CC(=O)c1cccc(NC(=O)C2CCN(c3nnc(-n4cccc4)s3)CC2)c1 | inactive: 66%
36 | CCc1cccc(Nc2c3c(nc4ncnn24)CCC3)c1 | inactive: 108%
37 | Cc1ccc(N2C(=O)CSC23C(=O)Nc2ccccc23)cc1F (centres undefined) | inactive: 75%
38 | Cc1cccc(-c2nc3c4ccccc4n(CC(=O)Nc4cc(F)ccc4F)c(=O)n3n2)c1 | inactive: 83%
39 | Cc1cc2c(n1-c1ccc(C(=O)NCc3cccc(Br)c3)cc1)CCC(C)C2 (centres undefined) | inactive: 140%
40 | CCOC(=O)c1c(-c2ccccc2)oc2ccc(OCc3ccc(C)cc3)cc12 | inactive: 17%
41 | Cc1ccccc1Cn1c(=O)n(CCCCC(=O)NCc2ccc3c(c2)OCO3)c(=O)c2ccccc21 | inactive: 97%
42 | CCOc1ccc(C(=O)Nc2c(C)nc(Nc3ccccc3)nc2Nc2ccccc2)cc1OCC | inactive: 77%
43 | COc1ccc(S(=O)(=O)Nc2c(C)n(C)n(-c3ccccc3)c2=O)cc1Br | inactive: 76%
44 | COc1ccc(C(=O)Cn2c(=O)n3nc(CCn4nc(C)cc4C)nc3c3cc(OC)c(OC)cc32)cc1 | inactive: 153%
45 | O=C(NCc1ccncc1)Nc1ccccc1 | inactive: 118%
46 | COc1ccc(CCNc2nc(-c3ccccc3OC)cc(C(F)(F)F)n2)cc1OC | active: -8%

Row | Structure (SMILES) | survival
47 | COc1ccccc1N1CCN(C(=O)CSc2nc(C)cc(=O)[nH]2)CC1 | inactive: 86%
48 | CC(C)Nc1cc(N2CCN(C3CCCCC3)CC2)c2noc3c2c1C(=O)c1ccccc1-3 | inactive: 78%
49 | CCOc1ccccc1CNC(=O)C1=C(C)C(=O)OC12CCN(C(C)=O)CC2 | inactive: 73%
50 | CCOc1ccc(CNC(=O)C(C)n2ncn3cccc3c2=O)cc1 (centres undefined) | inactive: 88%
51 | Cc1c(CN2CCOCC2)c(=O)n(-c2ccccc2)n1C | inactive: 104%
52 | CCOC(=O)c1[nH]c(C)c(CCC(=O)Nc2ccc(C)cc2Cl)c1C | inactive: 75%
53 | O=C(c1ccc(Br)cc1)N1CCC(c2nc3ccccc3s2)CC1 | inactive: 113%
54 | Cc1ccc2c(c1)c1c(c(=O)n(-c3ccccc3C)c(=O)n1Cc1cccc(F)c1)n2C | inactive: 126%
55 | Cc1ccc(Cl)cc1NC(=O)C(NS(=O)(=O)c1ccc2c(c1)CCC(=O)N2)c1ccccc1 (centres undefined) | inactive: 70%
56 | CC1=C(c2ccc(F)cc2)S(=O)(=O)NC1=NCc1ccccc1Cl | inactive: 136%
57 | CC(C)(C)C(=O)Nc1ccc2nc(SCc3ccccc3)sc2c1 | inactive: 82%
58 | CCc1ccc(NCc2cc3cc(OC)c(OC)cc3n(CC(=O)Nc3ccc(F)cc3)c2=O)cc1 | inactive: 65%
59 | Cc1cccc(NC(=O)CC2C(=O)OCCN2Cc2ccccc2)c1 (centres undefined) | inactive: 137%
60 | NCC1Cc2ccccc2O1 (centres undefined) | inactive: 99%
61 | CCC(=O)N1CCc2cc(S(=O)(=O)NC(Cc3ccccc3)C(=O)NCc3cccc(OC)c3)ccc21 (centres undefined) | inactive: 79%
62 | COc1ccc(-c2cn3nc(N4CCCC(C(=O)NCCCOC(C)C)C4)sc3n2)cc1 (centres undefined) | inactive: 68%
63 | Cc1ccccc1C(=O)NC(=O)Nc1ccc(-n2nc(C(F)(F)F)cc2C(F)(F)F)cc1 | inactive: 79%
64 | COc1cccc(CNC(=O)CCn2c(=O)c3cccn3c3cccnc32)c1 | inactive: 87%
65 | COc1ccc2cc(CNc3ccccc3)c(=O)n(CC(=O)Nc3ccc(C(C)=O)cc3)c2c1 | inactive: 54%
66 | CCCN(CCC)c1cc(C)nc2nc(-c3ccc(Cl)cc3)nn12 | inactive: 87%
67 | Cc1ccc(C(=O)CSc2nc(-c3ccccc3)nc3c2CCCC3)cc1C | inactive: 19%
68 | COc1ccc(-c2csc3ncnc(Nc4cccc(F)c4)c23)cc1 | active: -3%
69 | CC(=O)c1ccc(NC(=O)CC2Sc3ccccc3NC2=O)cc1 (centres undefined) | inactive: 78%

Row | Structure (SMILES) | survival
70 | Cc1cc(Oc2nc3ccccn3c(=O)c2/C=C(\C#N)c2nc3ccccc3s2)ccc1Cl | inactive: 65%
71 | CC1=C(C(=O)Nc2ccc(C)cc2C)C(c2cccs2)n2nc(SCc3ccc(Cl)cc3)nc2N1 (centres undefined) | inactive: 83%
72 | Cc1ccc(NC(=O)C2CCN(C(=O)c3cnn(-c4ccccc4)c3-n3cccc3)CC2)cc1Cl | inactive: 71%
73 | Cc1ccc(Nc2nc(C(N)=O)c(NC(=O)c3ccccc3Br)s2)cc1 | inactive: 71%
74 | Cc1ccc(CSc2nc3cccnc3n2Cc2ccc(C(=O)NCc3cccs3)cc2)cc1 | inactive: 45%
75 | Cc1nc2nc(NC(=O)C(C)C)[nH]n2c(=O)c1Cc1ccccc1 | inactive: 88%
76 | ON(Cn1nnc2ccccc21)Cn1nnc2ccccc21 | inactive: 113%
77 | CC(CNC(=O)Cn1c(-c2cccs2)cc2cc(Cl)ccc21)c1ccccc1 (centres undefined) | inactive: 73%
78 | COc1cc(Cl)c(C)cc1NC(=O)CCn1cnc2onc(-c3ccc(F)cc3)c2c1=O | inactive: 73%
79 | COCC(C)NS(=O)(=O)c1ccc(N2CCCCS2(=O)=O)cc1 (centres undefined) | inactive: 85%
80 | CCN1C(C(=O)c2ccccc2)=C(NC(=O)c2ccc(Cl)cc2)c2ccccc2S1(=O)=O | inactive: 94%
81 | COc1ccc(-n2nnnc2SCC(=O)N2CCCCC2C)cc1 (centres undefined) | inactive: 110%
82 | CCOC(=O)c1ccc(NC(=O)c2sc3nc4n(c(=O)c3c2C)CCC4)cc1 | inactive: 119%
83 | O=C(NCc1ccccc1)N(Cc1cccnc1)Cc1cc2cc3c(cc2[nH]c1=O)OCCO3 | inactive: 102%
84 | Cc1ccc(C)c(S(=O)(=O)c2cn(Cc3ccccc3)c3cc(N4CCCC4)c(F)cc3c2=O)c1 | inactive: 89%
85 | CCOc1ccc(NC(=O)Cn2c(=O)n(CC(=O)NCCc3ccccc3)c(=O)c3sccc32)cc1 | inactive: 85%
86 | Cc1ccc2c(CC(=O)Nc3c(C(=O)c4ccc(F)cc4)oc4ccccc34)coc2c1C | inactive: 111%
87 | CC(C)c1ccc(NC(=O)C(Cc2ccccc2)n2cccc2)cc1 (centres undefined) | active: 13%
88 | Cc1cccc(C)c1NC(=O)c1cc(S(=O)(=O)N2CCCc3ccccc32)ccc1F | inactive: 140%
89 | COc1cccc(C(=O)NCCc2sc(-c3cccc(C)c3)nc2C)c1 | inactive: 70%
